# Publication PMC4263322
# Sequences of proteins named here, by UniProt entry; tags and fusion partners are left off.
# UniProt P06748: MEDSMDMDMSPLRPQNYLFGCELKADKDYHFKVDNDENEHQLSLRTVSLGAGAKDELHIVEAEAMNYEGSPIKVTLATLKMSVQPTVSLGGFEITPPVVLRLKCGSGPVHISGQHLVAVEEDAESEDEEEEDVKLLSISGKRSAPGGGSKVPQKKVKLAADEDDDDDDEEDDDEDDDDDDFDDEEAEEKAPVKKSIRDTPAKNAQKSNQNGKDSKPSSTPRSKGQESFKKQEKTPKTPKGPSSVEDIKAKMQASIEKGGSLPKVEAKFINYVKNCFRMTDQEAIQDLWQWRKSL
# Results are given in words; binding and its absence hold for the method and conditions named. In cells and extracts the contact can be indirect. Some results given as binding are weak or reduced against the parent protein; the word gives no strength.
# Tests used:
# [1] = molecular target: T1, DNA polymerase-η (polη) (human (endogenous in MRC5sv)) (UniProt Q9Y253); experiment: condition: only transiently after ultraviolet irradiation of the cells (10 J m^-2); proximity ligation; MRC5sv cells ultraviolet irradiated with 10 J m^-2 at time points before fixation; rabbit anti-polη and mouse anti-NPM1 with PLA probes
# T1 sequence: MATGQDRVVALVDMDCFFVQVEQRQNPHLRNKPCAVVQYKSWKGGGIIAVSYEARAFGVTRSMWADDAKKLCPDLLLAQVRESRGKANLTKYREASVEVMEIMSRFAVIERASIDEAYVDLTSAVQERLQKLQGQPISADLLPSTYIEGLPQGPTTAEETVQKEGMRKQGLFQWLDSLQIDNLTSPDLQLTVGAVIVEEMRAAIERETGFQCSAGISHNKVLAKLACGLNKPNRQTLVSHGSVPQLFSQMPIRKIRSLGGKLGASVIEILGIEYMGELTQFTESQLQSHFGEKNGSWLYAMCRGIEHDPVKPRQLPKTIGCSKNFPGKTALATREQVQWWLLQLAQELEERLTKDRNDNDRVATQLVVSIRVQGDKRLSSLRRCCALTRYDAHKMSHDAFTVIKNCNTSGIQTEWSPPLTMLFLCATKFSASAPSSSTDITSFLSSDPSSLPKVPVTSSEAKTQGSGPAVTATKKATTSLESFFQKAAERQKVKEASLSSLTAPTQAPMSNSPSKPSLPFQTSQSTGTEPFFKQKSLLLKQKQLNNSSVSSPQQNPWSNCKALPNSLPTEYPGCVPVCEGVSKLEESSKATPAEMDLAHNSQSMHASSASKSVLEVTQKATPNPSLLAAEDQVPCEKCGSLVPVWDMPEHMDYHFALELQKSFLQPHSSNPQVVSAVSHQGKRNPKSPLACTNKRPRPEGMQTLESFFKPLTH
# [2] = molecular target: T1, DNA polymerase-η (polη) (human (endogenous in MRC5sv)); experiment: co-IP; endogenous proteins in extracts of unirradiated MRC5sv cells; IP with rabbit anti-polη (H300), blot for NPM1; Triton lysis buffer (20 mM Tris-Cl pH 7.5, 150 mM NaCl, 0.5 mM EDTA, 10% glycerol, 1% Triton X-100), final washes with lysis buffer that also contained 250 mM NaCl
# [3] = molecular target: T1, DNA polymerase-η (polη) (human (endogenous in MRC5sv)); experiment: condition: only transiently after ultraviolet irradiation of the cells (10 J m^-2); co-IP; endogenous proteins extracted from MRC5sv cells at different time points after ultraviolet irradiation with 10 J m^-2
# [4] = molecular target: T1, DNA polymerase-η (polη) (human (endogenous in MRC5sv)); experiment: proximity ligation; fixed, permeabilised unirradiated cells (MRC5sv; XPV cells complemented with POLH); rabbit anti-polη and mouse anti-NPM1 with PLA probes
# [5] = molecular target: T2, polη expressed ectopically in XPV cells complemented with the POLH gene (human) (UniProt Q9Y253); experiment: as above
# T2 sequence: T1 sequence
substance,measurement,setting,value
nucleophosmin (NPM1) (from UniProt P06748 1-294),binding,[1],no binding
same,binding,[2],binds
same,binding,[3],no binding
same,binding,[4],binds
same,binding,[5],binds
